These results are taken from PubChem BioAssay AID488969 (Vanderbilt High Throughput Screening Facility, 2010).

SMILES strings stand for the structures. The full ranking holds about 110,000 compounds; the median of “z-score” is about -0.1, and the highest 2% start at about 2. This is one part of the list.

The target of the experiment is Metabotropic glutamate receptor 8 (Rattus norvegicus) (UniProt P70579). The experiment is described as follows: rat mGluR8 modulators via GIRK flux, primary screen, cell-based, thallium flux, HTS (AID 488969). Particulars: HEK293 rat mGluR8, GIRK (G protein-gated inwardly rectifying potassium channel) thallium flux, FluoZin2; at 10 µM; stronger effect = higher value; submaximal glutamate (EC20) added with thallium.
UniProt P70579, sequence (P70579 whole entry, looked up): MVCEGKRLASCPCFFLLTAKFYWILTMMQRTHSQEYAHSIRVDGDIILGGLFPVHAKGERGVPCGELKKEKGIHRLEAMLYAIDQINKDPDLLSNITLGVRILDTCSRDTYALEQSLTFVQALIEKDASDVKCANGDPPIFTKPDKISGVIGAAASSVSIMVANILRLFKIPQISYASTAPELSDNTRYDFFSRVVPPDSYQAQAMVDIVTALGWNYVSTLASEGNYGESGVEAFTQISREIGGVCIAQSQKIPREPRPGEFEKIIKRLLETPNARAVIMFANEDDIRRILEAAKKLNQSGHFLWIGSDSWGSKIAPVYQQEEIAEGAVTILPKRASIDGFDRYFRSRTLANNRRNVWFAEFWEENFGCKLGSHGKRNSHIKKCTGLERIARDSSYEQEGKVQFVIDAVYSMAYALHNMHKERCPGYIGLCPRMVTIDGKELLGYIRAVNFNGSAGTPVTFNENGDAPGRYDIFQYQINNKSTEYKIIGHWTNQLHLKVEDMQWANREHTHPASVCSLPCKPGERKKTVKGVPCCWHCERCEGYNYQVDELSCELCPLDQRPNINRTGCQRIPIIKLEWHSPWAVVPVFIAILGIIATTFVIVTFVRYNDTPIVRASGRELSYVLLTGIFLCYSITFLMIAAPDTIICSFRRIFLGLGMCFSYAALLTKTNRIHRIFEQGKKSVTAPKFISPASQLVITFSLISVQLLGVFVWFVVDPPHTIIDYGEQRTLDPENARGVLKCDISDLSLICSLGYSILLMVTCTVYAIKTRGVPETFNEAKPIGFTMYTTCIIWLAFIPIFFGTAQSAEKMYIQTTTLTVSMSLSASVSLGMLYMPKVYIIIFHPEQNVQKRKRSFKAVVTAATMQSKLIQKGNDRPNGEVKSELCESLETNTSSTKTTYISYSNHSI
`COc1ccc(N2C(=O)C(Cl)=C(Nc3ccccc3O)C2=O)cc1`: the z-score was -0.162.

Turning to `Cc1ccc(-n2ncc3c(=O)[nH]cnc32)c(C)c1`, the z-score is 1.35. In the case of `O=C1c2ccccc2C(O)N1c1cccnc1` (stereo not drawn) it was -0.0998; in that of `Cc1cc(C)n(-c2ccc(-n3ccnc3)nn2)n1`, -0.0693; in that of `Cc1ccc(-n2nc(CN3CCOCC3)c(-c3ccccc3)c2N)cc1Cl`, -0.672. Then `CCCCn1c(/N=C/c2ccc(N(C)C)cc2)nc2ccccc21`, with -0.34; and `COc1cc2nc(-c3ccc(Br)o3)oc(=O)c2cc1OC`, with -1.58; and `Cc1c(NC(=O)c2cccs2)cccc1-c1nc2ccccc2s1`, with -0.476. Then `C/C(=N\S(=O)(=O)c1ccc(C)cc1)N1CCN(S(=O)(=O)c2ccccc2)C1C(C)C` (stereo not drawn), with -0.0878.

`Oc1c(C(c2cccs2)N2CCN(c3ccccc3)CC2)sc2ncnn12` (stereo not drawn) returned a z-score of 0.429.

`C=CCNc1oc(Cc2cccc3ccccc23)nc1C#N` yielded a z-score of -0.633. `Cc1ccnc(Sc2nc3c(c(=O)[nH]c(=O)n3C)n2CCCc2ccccc2)n1` showed a z-score of 0.29. Then `OCCNC(=S)Nc1ccc(Cl)c(Cl)c1`, with 0.296; and `COC(=O)c1cccc(NC(=O)CN2CCN(Cc3ccccc3)CC2)c1`, with -0.223; and `COc1ccc(CCN2CN(S(=O)(=O)c3ccccc3)c3nc4ccccc4nc32)cc1OC`, with -0.948. The molecule `COc1ccc(OC)c(-n2c(-c3cccc(O)c3)n[nH]c2=S)c1` gave a z-score of -0.429. In the case of `Cc1nn(C)c(Cl)c1NC(=O)OCc1ccccc1` it was -0.064. As for `Cc1ccc2nc(-c3ccc(NC(=S)NCCC(C)C)cc3)sc2c1`, the z-score came out at 0.169. With `Cn1c(=O)cc(SCC(=O)Nc2ccc3c(c2)OCO3)c2ccccc21`, the z-score is -0.276. In the case of `Cc1ccc(N=Nc2c(=O)[nH]n3c(=O)cc(C)[nH]c23)cc1` it was -0.491. With `CN1CCN(C(=O)c2cc(-c3ccco3)on2)CC1`, the z-score is -0.486.

`Cc1ccccc1NC(=O)CSc1nnnn1C` gave a z-score of -0.213. Take `COc1cnc(SCc2c(Cl)cccc2Cl)nc1Cl`: the z-score stood at 0.0106. As for `Cc1ccc2c(c1)N(CC(=O)NCc1cccnc1)C(=O)CO2`, the z-score was -0.0749. `COc1ccccc1-c1csc(Cc2nnc3n2CCCCC3)n1` came in with a z-score of -0.152. Then `CCOc1c(Br)cc(CNc2ccc3c(c2)OCCO3)cc1OC`, with 0.0844. Then `O=[N+]([O-])c1ccc(O)c(/C=N/n2cnc3ccccc32)c1`, with -0.812. `Cn1c(NCc2ccccc2)nc2c1c(=O)n(Cc1ccccc1)c(=O)n2C` gave a z-score of -0.0134. Then `CC(=O)Nc1ccc2c(c1)nc(CN1CCCC1)n2C`, with 0.268; and `[O-][n+]1c2c(nn1-c1ccccc1Cl)-c1nonc1CC2`, with 1.15; and `CC1CC1c1ccc(/C=C(\C#N)C(=O)Nc2cc(Cl)ccc2Cl)o1` (stereo not drawn), with -0.184. In the case of `CC1CCN(CC(=O)Nc2ccccc2Sc2ccccc2)CC1` it was 0.156; in that of `CC1=Nn2c(nnc2-c2ccccc2F)SC1`, -0.0427.
